# Laboratory results reported in the supplement of paper PMC10037445.
# Whole data set: some 2,900 compounds, median “IRF Lucia reporter activity, fold change vs agonist alone” near 0.9, cut for the highest 2% near 2.8. The list shows a part of the results.
# Experiments:
# RAW-Dual [1] = assay: IRF Lucia reporter activity, fold change vs agonist alone; cytotoxicity flag (confluency mask): not cytotoxic; higher = enhanced IRF activity
# In short: (§1)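 RAW-Dual macrophages (50,000 cells/well in DMEM, 384-well plates) received 50 nL of library stock by pin tool, then a PRR agonist 1 h later, and were kept at 37 °C, 5% CO2. After 20 hours, supernatant was read for IRF by QuantiLuc luminescence and for NF-κB by QuantiBlue absorbance at 620 nm. Reporter activity is fold change over agonist-alone wells. Cytotoxic wells had IncuCyte confluency below 70% of agonist controls in both mask sets.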
# RAW-Dual [2] = assay: IRF Lucia reporter activity, fold change vs agonist alone; higher = enhanced IRF activity; details: library stock concentration (final ~1000-fold dilution): 10 mM, agonist: MPLA (TLR4) […]
# In short: as §1
# RAW-Dual [3] = assay: IRF Lucia reporter activity, fold change vs agonist alone; cytotoxicity flag (confluency mask): cytotoxic (confluency <70% of control); higher = enhanced IRF activity
# In short: as §1
# [4] = agonist: 3'3'-cGAMP (STING) 10 ug/mL
# [5] = cytotoxicity flag (confluency mask): not cytotoxic
# [6] = cytotoxicity flag (confluency mask): cytotoxic (confluency <70% of control)
compound,measurement,setting,value
O=C(O)/C=C\C(=O)O.O=C(c1ccc(OCCCc2c[nH]cn2)cc1)C1CC1 (library stock concentration (final ~1000-fold dilution): 10 mM),IRF Lucia reporter activity,RAW-Dual [1]; [4],1.11
same,IRF Lucia reporter activity,RAW-Dual [1]; agonist: LPS (TLR4) 0.1 ug/mL,0.839
O=C(O)/C=C\C(=O)O.O=C(c1ccc(OCCCc2c[nH]cn2)cc1)C1CC1,IRF Lucia reporter activity,RAW-Dual [2]; [5],1.08
COC(=O)C1=C(C#N)NC(C)=C(C(=O)OC(C)C)C1c1cccc([N+](=O)[O-])c1 (stereo not given) (library stock concentration (final ~1000-fold dilution): 10 mM),IRF Lucia reporter activity,RAW-Dual [3]; [4],1.12
same,IRF Lucia reporter activity,RAW-Dual [3]; agonist: LPS (TLR4) 0.1 ug/mL,1.33
COC(=O)C1=C(C#N)NC(C)=C(C(=O)OC(C)C)C1c1cccc([N+](=O)[O-])c1 (stereo not given),IRF Lucia reporter activity,RAW-Dual [2]; [6],1.97
CC(C)(O)CNc1ncc(-c2ccnc(Nc3ccnc(Cl)c3)n2)c(CC2CC2)n1 (library stock concentration (final ~1000-fold dilution): 10 mM),IRF Lucia reporter activity,RAW-Dual [1]; [4],0.0702
same,IRF Lucia reporter activity,RAW-Dual [1]; agonist: LPS (TLR4) 0.1 ug/mL,3.2
CNc1nc(Nc2cn(C(C)(C)C#N)nc2C)ncc1C(F)(F)F (library stock concentration (final ~1000-fold dilution): 10 mM),IRF Lucia reporter activity,RAW-Dual [1]; [4],0.665
same,IRF Lucia reporter activity,RAW-Dual [1]; agonist: LPS (TLR4) 0.1 ug/mL,0.819
CNc1nc(Nc2cn(C(C)(C)C#N)nc2C)ncc1C(F)(F)F,IRF Lucia reporter activity,RAW-Dual [2]; [5],1.12
C=CC(=O)N1C/C(=C\c2ccc([N+](=O)[O-])cc2)C(=O)/C(=C/c2ccc([N+](=O)[O-])cc2)C1,IRF Lucia reporter activity,RAW-Dual [2]; [6],0.573
C=CC(=O)N1C/C(=C\c2ccc([N+](=O)[O-])cc2)C(=O)/C(=C/c2ccc([N+](=O)[O-])cc2)C1 (library stock concentration (final ~1000-fold dilution): 10 mM),IRF Lucia reporter activity,RAW-Dual [3]; [4],0.146
same,IRF Lucia reporter activity,RAW-Dual [3]; agonist: LPS (TLR4) 0.1 ug/mL,0.0615
Cn1c(-c2ccccc2C(F)(F)F)nnc1C12CCC(c3noc(C4CC(F)(F)C4)n3)(CC1)CC2 (library stock concentration (final ~1000-fold dilution): 10 mM),IRF Lucia reporter activity,RAW-Dual [1]; [4],1.54
same,IRF Lucia reporter activity,RAW-Dual [1]; agonist: LPS (TLR4) 0.1 ug/mL,1.6
O=C(Nc1ccncc1)c1cc([N+](=O)[O-])ccc1Cl,IRF Lucia reporter activity,RAW-Dual [2]; [5],1.1
O=C(Nc1ccncc1)c1cc([N+](=O)[O-])ccc1Cl (library stock concentration (final ~1000-fold dilution): 10 mM),IRF Lucia reporter activity,RAW-Dual [1]; [4],1.05
same,IRF Lucia reporter activity,RAW-Dual [1]; agonist: LPS (TLR4) 0.1 ug/mL,1.21
O=C(CCCN1CCN(c2ccccn2)CC1)c1ccc(F)cc1,IRF Lucia reporter activity,RAW-Dual [2]; [5],1.24
O=C(CCCN1CCN(c2ccccn2)CC1)c1ccc(F)cc1 (library stock concentration (final ~1000-fold dilution): 10 mM),IRF Lucia reporter activity,RAW-Dual [1]; [4],1.08
same,IRF Lucia reporter activity,RAW-Dual [1]; agonist: LPS (TLR4) 0.1 ug/mL,1.18
CCOC(=O)C(CCc1ccccc1)NC(C)C(=O)N(CC(=O)O)C1Cc2ccccc2C1.Cl (stereo not given),IRF Lucia reporter activity,RAW-Dual [2]; [5],1.08
CCOC(=O)C(CCc1ccccc1)NC(C)C(=O)N(CC(=O)O)C1Cc2ccccc2C1.Cl (stereo not given) (library stock concentration (final ~1000-fold dilution): 10 mM),IRF Lucia reporter activity,RAW-Dual [1]; [4],1.04
same,IRF Lucia reporter activity,RAW-Dual [1]; agonist: LPS (TLR4) 0.1 ug/mL,1.18
